# Assay results from the supplement of paper PMC4466236.
# The full ranking holds about 33,000 sequences; the median of “E-score (dimensionless, -0.5 to 0.5)” is about -0.058, and the highest 2% start at about 0.35. Some of the results follow.
# Tested on: MvaT
# Experiment: PBM 8-mer E-score (mean of HK and ME arrays) (E-score (dimensionless, -0.5 to 0.5)); higher = stronger relative binding preference; most listed sequences are background and not binding sites
# Method: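 Protein binding microarray: GST-tagged full-length MvaT (P. aeruginosa PAO1) bound to two universal double-stranded 60-mer arrays (ME and HK), each with a constant 25-mer primer and a variable 35-mer region covering all 8-mers. The 8-mer E-score (rank-based, range -0.5 to 0.5, >0.45 = specific binding) is the mean of the two arrays.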
row,Sequence,PBM 8-mer E-score
1,AGGATTTC,0.0133
2,ACTGCGCC,0.00726
3,ATGGAACC,-0.0973
4,AAGTAGCA,0.0841
5,CCTGTCAG,-0.223
6,CTATAACC,0.155
7,CCATGCGG,-0.298
8,AGTTATTA,0.414
9,AAATTAAG,0.361
10,CAGTGCTA,-0.152
11,CTTCCTGC,-0.224
12,ACATCGGA,-0.00845
13,GTCATGCA,-0.143
14,CCCCCACG,-0.277
15,ATCTCTAC,-0.0596
16,CACTGCCG,-0.171
17,GACTTTAA,0.262
18,AGCCTGTG,-0.0621
19,GAGAACAA,0.166
20,ACTGACGC,-0.0941
21,AAAGTCTA,0.094
22,ATTCCACA,0.149
23,CCCATCAA,-0.0981
24,TGCTGCCA,-0.142
25,CACCTTCC,-0.164

row,Sequence,PBM 8-mer E-score
1,GCCCCAGC,-0.27
2,AAGTTCCC,0.0932
3,GTATAGGA,-0.108
4,GCGAAGGA,-0.218
5,AGGACTTG,-0.0855
6,CACTGCAA,-0.00971
7,CCATAAGG,-0.19
8,AATCGGCG,-0.169
9,TAAGGTCA,0.112
10,ACGTCGCT,-0.191
11,GGTTCCAC,-0.149
12,CGCCCGGA,-0.234
13,CTAGGTCA,-0.257
14,ATCGCTGG,-0.107
15,ACGGCCCA,-0.315
16,CAGTCTAG,-0.165
17,AGTTTCCG,0.027
18,ATTGGGCA,0.0365
19,GTTCAACA,0.0548
20,AAACACCA,0.0601
21,ACGTAGAA,0.0549
22,TGAATCAA,-0.0476
23,ATCATCTC,-0.0869
24,AGGCCCCA,-0.212
25,CCAACCGA,-0.0134

row,Sequence,PBM 8-mer E-score
1,CTAACGAG,-0.191
2,CCTGAACG,-0.274
3,GATGCAGA,-0.099
4,CGAGCGCC,-0.213
5,AGCTGAGG,-0.204
6,CGAGGACC,-0.247
7,CCGGTTCG,-0.257
8,ACACACAA,0.153
9,ACAAAGGT,-0.145
10,ACAAACGT,0.0807
11,ACCCCTAA,-0.0104
12,CGTCTGGA,-0.131
13,ACGAGCGT,-0.226
14,AGATGGGG,-0.145
15,AACTTAGA,0.331
16,AGCCATGC,-0.263
17,AGCTTTAT,0.0328
18,GACATTGA,0.0147
19,AAATAGCA,0.166
20,CTCGCGGA,-0.145
21,CCATCCAG,-0.22
22,ATTTCCAA,0.225
23,GGATCCTA,-0.239
24,ACTGCTAA,0.0475
25,ATAGTGCA,0.134

row,Sequence,PBM 8-mer E-score
1,AGCTCACA,-0.146
2,CACTAGAC,-0.0529
3,ACACATGC,-0.00188
4,GAGGATCC,-0.342
5,GTCTCGTA,-0.0952
6,CATTCTGC,-0.0849
7,ATCACCTA,-0.133
8,TAAACAGA,0.188
9,CTCAAGCA,-0.173
10,AATCATGC,-0.023
11,AAGTGGAG,-0.179
12,CAAAACGA,-0.0171
13,ATGAGATC,-0.145
14,CAAATTAA,0.286
15,CACGACGA,-0.139
16,ATCCGTTC,-0.0995
17,AATACAAT,0.32
18,AACGGTGA,-0.000507
19,GAGCAATA,0.0724
20,AGCACTTC,-0.111
21,AAGTGGGG,-0.172
22,CATTAGTA,0.191
23,ACCCATCC,-0.145
24,TCGTTAAA,0.156
25,CACATCTC,-0.124

row,Sequence,PBM 8-mer E-score
1,TCATCAAA,0.094
2,TCGATAGA,0.0356
3,AGAGCCCG,-0.211
4,ATTAACAA,0.381
5,GAACACCA,-0.123
6,CCTCCAAG,-0.224
7,ACCGTTAT,0.229
8,ACTCATCA,0.0732
9,AGGCACCA,-0.116
10,AATCGATA,0.214
11,CCTTCCGC,-0.319
12,GAATGACC,-0.0984
13,ACGCCTAC,-0.3
14,AATAGTTA,0.387
15,ATTCAATA,0.309
16,CGATCGAC,-0.109
17,TTCATCAA,0.159
18,TATTCTAA,0.278
19,TAGCATGA,-0.125
20,CACCTGAG,-0.24
21,CGAATATC,0.0677
22,AGGATAAG,0.0764
23,ACAGGAAT,0.0389
24,GCGGCTAA,-0.119
25,GACCAGGA,-0.274

row,Sequence,PBM 8-mer E-score
1,TGGGTGAA,0.102
2,AACCAATG,-0.101
3,AATTATAG,0.37
4,GCGTATGA,0.156
5,AAGCCAAC,-0.0388
6,CCAGTCCC,-0.327
7,TGCCTCCA,-0.234
8,CAGCGTGC,-0.282
9,ATTTTCAC,0.178
10,AGGTAAGA,0.0841
11,CTAGCGAG,-0.101
12,ATCAACAT,0.0394
13,AAGAACGT,-0.0503
14,CCCCATGC,-0.262
15,TTCGTCAA,0.0954
16,CAATTCAG,0.207
17,GTCTAAAC,0.0242
18,ATCAGTAC,0.144
19,CAGACCCG,-0.183
20,ACGGGCAA,-0.0766
21,CTACTATC,0.183
22,CGTTGGCA,-0.22
23,AACATCGT,0.118
24,GGGGTTGA,-0.0727
25,GATAAACC,0.133

row,Sequence,PBM 8-mer E-score
1,GACCTCTC,-0.331
2,CTCGGAAG,-0.0476
3,AACTACCG,0.133
4,CTAGAGAC,-0.156
5,ACGGATTG,-0.0278
6,GATGCTGC,0.0423
7,AAAGGGTG,-0.191
8,CCTACCGA,-0.165
9,CGGGTCGA,-0.149
10,ACATGTGC,-0.159
11,CGGCTTTC,-0.179
12,AGCTAGAG,-0.228
13,ACCCCTCT,-0.132
14,ACTCCTTC,-0.27
15,GAGGTCTA,-0.186
16,ACCGTGTG,-0.273
17,ACTGTCAG,-0.0723
18,GTTAGGCA,-0.0384
19,CGCAATCC,-0.15
20,AATTACTC,0.263
21,CCACTAGA,-0.0219
22,GCGATGGA,-0.156
